In the supplement of paper PMC4604168 (melanoma cell lines):
Some of the results follow. Many values rest on one well or one pass, so single values are uncertain.

What follows are molecules tested on WM3526 (assay: cell count relative to DMSO control; melanoma cells; higher = more viable cells). Settings: library dose: low library concentration; 72 h.
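Note: cell number obtained by counting DAPI-stained nuclei in high-throughput microscope images with image analysis software, screen run in 1,536-well plates.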

| Structure (SMILES) | cell count [%] |
| --- | --- |
| CCCCCCCCc1ccc(CCC(N)(CO)CO)cc1 [fingolimod] + N.N.[Cl][Pt][Cl] [cisplatin] (first compound 2 µM, partner dose 1.6 µM) | 78.5 |
| O=S(=O)(c1ccccc1)N(CC(F)(F)F)c1ccc(C(O)(C(F)(F)F)C(F)(F)F)cc1 + O=C(Oc1ccc([N+](=O)[O-])cc1)N1CCC(C(O)(c2ccc3c(c2)OCO3)c2ccc3c(c2)OCO3)CC1 [JZL184] (first compound 1.4 µM, partner dose 1 µM) | 80.9 |
| O=C(/C=C/c1cccnc1)NCCCCC1CCN(C(=O)c2ccccc2)CC1 + O=C(Oc1ccc([N+](=O)[O-])cc1)N1CCC(C(O)(c2ccc3c(c2)OCO3)c2ccc3c(c2)OCO3)CC1 [JZL184] (first compound 0.01 µM, partner dose 1 µM) | 98.3 |
| NC1(c2ccc(-c3nc4ccn5c(=O)[nH]nc5c4cc3-c3ccccc3)cc2)CCC1 + Cc1cc(SCc2sc(-c3ccc(C(F)(F)F)c(F)c3)nc2C)ccc1OCC(=O)O [GW0742] (first compound 0.4 µM, partner dose 2 µM) | 81.1 |
| NC1(c2ccc(-c3nc4ccn5c(=O)[nH]nc5c4cc3-c3ccccc3)cc2)CCC1 + C[As](C)SC[C@H](NC(=O)CC[C@H](N)C(=O)O)C(=O)NCC(=O)O [Darinaparsin] (first compound 0.4 µM, partner dose 0.4 µM) | 76.7 |
| COc1ccc(C2=N[C@@H](c3ccc(Cl)cc3)[C@@H](c3ccc(Cl)cc3)N2C(=O)N2CCNC(=O)C2)c(OC(C)C)c1 [Nutlin-3] + O=C(Oc1ccc([N+](=O)[O-])cc1)N1CCC(C(O)(c2ccc3c(c2)OCO3)c2ccc3c(c2)OCO3)CC1 [JZL184] (first compound 0.1 µM, partner dose 1 µM) | 87.1 |
